In PubChem BioAssay AID624417 (National Center for Advancing Translational Sciences (NCATS), 2012):
In all, about 410,000 compounds went through this assay and about 6,400 (1.6%) were called active. The inconclusive results got no clear call from the source; some entries with a clear call stand among them for comparison. Calls come from the whole dose curve; as a rule, active = well fitted inhibition curve with a large enough effect; inconclusive = small, poorly fitted or top-dose-only effect; inactive = no such curve, though single readings can be large or run the other way. No potency is given beside an inconclusive call; the fits are too rough.

biological target: Glucagon-like peptide 1 receptor (Homo sapiens) (UniProt P43220); test: qHTS of GLP-1 Receptor Inverse Agonists (Inhibition Mode); details: HEK293 GLP-1R CRE-luciferase, luminescence, 24 h, GLP-1R form is constitutively active; series mostly up to 38.3 µM; note: nearly all actives have a fitted effect of over 55% in size
In short: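 HEK293 cells stably co-expressing a cAMP-responsive luciferase reporter and constitutively active GLP-1R were seeded, incubated 12 h, then exposed to compounds for 24 h at 37 C. Luminescence was read 12 min after detection reagent; inverse agonists lower signal.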
Potency is the fitted concentration of half-maximal effect; tags give direction and shape of the fitted curve.

Chain of UniProt P43220 (P43220 whole entry, looked up): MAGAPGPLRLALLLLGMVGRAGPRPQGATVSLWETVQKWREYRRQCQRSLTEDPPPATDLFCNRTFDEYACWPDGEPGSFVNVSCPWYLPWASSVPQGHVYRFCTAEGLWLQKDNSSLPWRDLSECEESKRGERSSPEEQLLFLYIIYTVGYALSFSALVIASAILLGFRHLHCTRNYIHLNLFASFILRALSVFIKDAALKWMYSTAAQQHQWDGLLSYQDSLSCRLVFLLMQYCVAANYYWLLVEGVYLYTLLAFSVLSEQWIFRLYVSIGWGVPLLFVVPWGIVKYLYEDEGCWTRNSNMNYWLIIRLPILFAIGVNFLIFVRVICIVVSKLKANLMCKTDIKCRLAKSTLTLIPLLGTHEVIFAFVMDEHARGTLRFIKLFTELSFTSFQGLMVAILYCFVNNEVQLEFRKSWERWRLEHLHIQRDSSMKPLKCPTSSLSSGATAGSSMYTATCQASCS

| SMILES | Potency |
| --- | --- |
| O=[N+]([O-])c1ccccc1C=NNc1ccccc1 | inconclusive [inhibitor, full curve, poor fit] |
| CCOC(=O)Cc1ccc(NC(=O)NC(C)c2c(-n3cccc3)sc(C)c2C)cc1 (stereo unspecified) | inconclusive [inhibitor, single point] |
| CCCCCCCCN1C(=O)[C@H](CC(=O)NCc2cccc3ccccc23)C[C@@]2(C(=O)OCC)CCC=C12 | inconclusive [inhibitor, partial curve, poor fit] |
| O=C(c1ccco1)N1CCN(C(c2ccccc2)c2nnnn2C2CCCC2)CC1 (stereo unspecified) | inconclusive [inhibitor, partial curve, poor fit] |
| O=C(Cn1nc2ccccc2n1)N/N=C/c1cc(Cl)cc([N+](=O)[O-])c1O | inconclusive [inhibitor, single point] |
| Fc1ccccc1COc1ccc(-c2nnn(Cc3ccccc3F)n2)cc1 | inconclusive [inhibitor, partial curve, poor fit] |
| CCOC(=O)C1(Cc2cccc(Cl)c2)CCCN(C(=O)c2cc(C)on2)C1 (stereo unspecified) | inactive |
| CC(=O)c1cccc(NC(=O)C(OC(=O)c2ccccc2NS(=O)(=O)c2cccs2)c2ccccc2)c1 (stereo unspecified) | inconclusive [inhibitor, single point] |
| Cc1ccc2c(C)c(C(=O)N(Cc3ccc(N(C)C)cc3)Cc3ccco3)oc2c1C | inactive |
| COc1ccc(NC(=O)CN2CCN(c3ccccc3Cl)CC2)cc1 | inconclusive [inhibitor, partial curve] |
| CC1CCN(CCOc2ccc(C(=O)c3ccccc3)cc2)CC1 | inconclusive [inhibitor, single point] |
| CCC[C@@H](CN1CCC[C@H]1CN1C(N)=NC[C@@H]1Cc1ccccc1)N1C[C@@H](Cc2ccccc2)N(CCCC2CCCC2)C1=N | inactive |
| O=C(Nc1ccc(Br)cc1)c1cc(S(=O)(=O)NC2CCCC2)ccc1F | inconclusive [inhibitor, partial curve, poor fit] |
| COc1ccc(NS(=O)(=O)c2ccc(C(=O)N(C)Cc3ccc(C)o3)cc2)cc1 | inconclusive [inhibitor, single point] |
| Cc1ccc(C(C)n2cc(C(=O)NCc3cccnc3)nn2)cc1 (stereo unspecified) | inconclusive [inhibitor, partial curve, poor fit] |
| Fc1ccc(-n2cc(-c3ccccc3)c3c(=S)nc[nH]c32)cc1 | inconclusive [inhibitor, partial curve, poor fit] |
| Cc1ccc(C)c(N2CCN(C(=O)c3ccc(Cn4c(=O)[nH]c5ccccc5c4=O)cc3)CC2)c1 | inconclusive [inhibitor, partial curve, poor fit] |
| CNC(=S)N/N=C/c1cc(C)n(-c2ccc(Cl)c(Cl)c2)c1C | inconclusive [inhibitor, partial curve, poor fit] |
| COC(=O)CCNc1ccc2c(c1)OCCO2 | inconclusive [inhibitor, partial curve, poor fit] |
| O=C(Nc1ccon1)c1ccc2c(c1)OCO2 | inactive |
| CCOc1ccc(N(CC(=O)Nc2ccc(OC)cc2)S(=O)(=O)c2ccc(Cl)cc2)cc1 | inactive |

| SMILES | Potency |
| --- | --- |
| NC(=O)c1ccccc1NC(=O)N1CCOCC1 | inactive |
| CCc1nc2c(OCCn3cccc3)cccn2c1N(C)C(=O)c1ccc(C)cc1 | inactive |
| COc1ccc(CNC(=O)C(C)NC(=O)c2cc3ccccc3o2)cc1 (stereo unspecified) | inconclusive [inhibitor, full curve] |
| O=C(Nc1nnc(-c2ccccc2Cl)o1)c1nc2ccccc2s1 | inconclusive [inhibitor, single point] |
| COc1ccc(Cl)cc1NC(=O)CCN1C(=O)C2C3CCC(C3)C2C1=O (stereo unspecified) | inconclusive [inhibitor, partial curve] |
| CCOC(=O)c1ccc(NC(=O)NC2=NCCS2)cc1 | inconclusive [inhibitor, full curve] |
| CN(c1ccc(C(=O)N2CCCCCC2)cc1)S(=O)(=O)c1ccc(Cl)cc1 | inconclusive [inhibitor, partial curve, poor fit] |
| COc1cccc(-c2nc(CS(=O)(=O)CC(=O)Nc3ccccc3Cl)c(C)o2)c1 | inconclusive [inhibitor, full curve, poor fit] |
| COc1ccc(NC(=O)CN2C(=O)NC(c3ccccc3)(c3ccccc3)C2=O)cc1 | inconclusive [inhibitor, partial curve, poor fit] |
| C[C@H](NC(=O)OCc1ccccc1)c1nnc([C@H](Cc2ccccc2)NC(=O)OC(C)(C)C)o1 | inconclusive [inhibitor, single point] |
| CC1CCN(CCNC(=S)Nc2ccc(Cl)cc2)CC1 | inconclusive [inhibitor, single point] |
| COc1ccc2sc(-c3ccc(N(C)C)cc3)c(C#Cc3cncn3C)c2c1 | inactive |
| CCOc1ccc(NC(=O)Cn2nc3c(cc2=O)CC(C)CC3)cc1 (stereo unspecified) | inactive |
| CC(=O)c1sc(NC(=O)Cc2c(F)cccc2Cl)nc1C | inactive |
| CCOC(=O)C1=CC[C@@H](c2cccc(C)c2)N(S(=O)(=O)c2ccc(C)cc2)[C@H]1C(=O)OCC | inconclusive [inhibitor, single point] |
| CCN1CCN(C(c2ccccc2Cl)c2sc3nc(-c4ccco4)nn3c2O)CC1 (stereo unspecified) | inactive |
| COc1cc(O)cc(/C=C/c2ccccc2)c1 | inconclusive [inhibitor, single point] |
| CCc1ccc(NC(=O)Cn2c(=O)n(-c3ccccc3C)c(=O)c3c2c2cc(OC)ccc2n3C)cc1 | inconclusive [inhibitor, full curve, poor fit] |
| O=c1c2ccccc2nc(SCc2ccccc2Cl)n1Cc1ccccc1 | inconclusive [inhibitor, partial curve, poor fit] |
| COc1ccc(NC(=O)CSc2nc3ccccc3nc2N2CCCCC2)cc1 | inconclusive [inhibitor, partial curve, poor fit] |
